Measured values: PubChem BioAssay AID493208 (National Center for Advancing Translational Sciences (NCATS), 2011)
Among all 44,000 compounds or so, about 340 (0.77%) were called active. Roughly 5% stayed inconclusive and do not appear here. Calls come from the whole dose curve; as a rule, active = well fitted inhibition curve with a large enough effect; inconclusive = small, poorly fitted or top-dose-only effect; inactive = flat fitted curve, though single readings scatter. Some of the results follow.

Assay: Acumen qHTS Assay for Inhibitors of the mTORC1 Signaling Pathway in MEF (Tsc2-/-, p53-/-) Cells: Sytravon;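 note: plate controls were DMSO for no effect and rapamycin for full effect; nearly all actives have a fitted effect of over 50% in size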
Conditions: phospho-rpS6 immunofluorescence/PI, 24 h; series mostly up to 38.3 µM; activity change, negative = inhibition: at the top concentration
How it was run: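 Compounds act on Tsc2-/-, p53-/- fibroblasts carrying an empty vector for 24 h before fixation and dual staining for phospho-S6 and DNA (propidium iodide). Values are percentages of cells above a rapamycin-defined pS6/PI threshold.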

Activity change, negative = inhibition, inactive:
O=C(CCc1nc2cccnc2n1-c1ccccc1)Nc1ccc(Cl)c(Cl)c1 6.01%
CC(=O)c1ccc(N2C(=O)N(Cc3ccccc3C#N)c3ccccc3S2(=O)=O)cc1 0.323%
CCOc1ccc(C(=O)NCC(c2ccc3c(c2)OCO3)N2CCOCC2)cc1 (stereo not given) -2.29%
COc1cc(-c2noc(-c3ccc(NCc4ccco4)c([N+](=O)[O-])c3)n2)cc(OC)c1OC -0.294%
Cc1c(C(=O)Nc2ccc(F)c(Cl)c2)oc2ccc(S(=O)(=O)N(C)C3CCCCC3)cc12 4.65%
Cc1ccc(-n2ncc(C(=O)Nc3ccc4c(c3)OCO4)c2C2CCN(C(=O)OC(C)(C)C)CC2)c(C)c1 0.45%
CCOC(=O)c1nc(Nc2ccccc2OC)c2ccccc2n1 -16.8%
Cc1cn2c(=O)cc(COc3ccc(NC(=O)c4ccccc4C)cc3)nc2s1 -15.3%
CCCOc1ccc(-c2nc(N3CCCCC3)c3ccccc3n2)cc1 8.6%
Cc1nn(C)c2c1c(C(F)(F)F)cc(=O)n2CC(=O)N1CCCCC1C (stereo not given) -1.56%
CCCCN(CC)C(=O)c1cc2c(=O)n3ccccc3nc2n1C -0.958%
COc1cc2[nH]c(=O)n(Cc3ccc(C(=O)N4CCN(c5cc(Cl)ccc5C)CC4)cc3)c(=O)c2cc1OC -23.1%
COc1ccc(N(Cc2cccs2)C(=O)c2ccc(C(C)(C)C)cc2)cc1 -1.68%
O=C(NCC(c1ccc2c(c1)OCO2)N1CCOCC1)C(=O)Nc1ccc(F)cc1F (stereo not given) -4.45%
O=C(Cn1cnc2c(oc3ccccc32)c1=O)Nc1ccc(OC(F)(F)F)cc1 -0.757%
O=C(Nc1cccc(Cl)c1)N1CCC(CN2CCOCC2)CC1 0.192%
O=C(CN1C(=O)CC(c2ccco2)Sc2ccccc21)Nc1ccc(C(F)(F)F)cc1 (stereo not given) 0.107%
CC(C)(C)c1ccc(S(=O)(=O)c2cn(CC(=O)Nc3ccccc3)c3ccccc3c2=O)cc1 -0.512%
Cc1cccc(CCNC(=O)c2cnc3c(C)cccn3c2=O)c1 4.3%
Cc1ccc(CNC(=O)c2ccc3c(c2)N(Cc2ccccc2)C(=O)c2ccccc2S3(=O)=O)cc1 -11.7%
COc1ccccc1CNC(=O)Cc1csc2nc(-c3ccccc3)cn12 0%
O=C(CCC1N=C2c3ccccc3N=C(SCc3ccccc3F)N2C1=O)NCCc1ccccc1 (stereo not given) 3.34%
Cc1cc(C)c(NC(=O)Cn2ccn(-c3cccc(Cl)c3)c(=O)c2=O)c(C)c1 -1.31%
COC(=O)C1CCN(CC(=O)Nc2cc(C)c3c(=O)oc4ccccc4c3n2)CC1 -7.68%
COc1ccc(N(C(=O)c2cccc(C)c2)S(=O)(=O)c2ccc(C)cc2)cc1 3.49%
O=C(Nc1nnc(S(=O)(=O)N2CCCc3ccccc32)s1)c1cccc(F)c1 0.153%
Cc1ccc2c(c1)N(C(=O)C1CCN(S(=O)(=O)c3c(C)noc3/C=C/c3ccccc3F)CC1)CCO2 -3.65%
CCn1c(SCc2ccc(F)cc2Cl)nnc1-c1nonc1NC(C)=O -2.92%
CCOC(=O)c1ccc(NC(=O)c2c(C)nn(-c3ccc(F)cc3)c2-n2cccc2)cc1 0.332%
COc1ccc(CNC(=O)CCNS(=O)(=O)c2cccc3nsnc23)cc1 -12.3%
Fc1ccc(-n2ncc3c(N4CCC(Cc5ccccc5)CC4)ncnc32)cc1 3.05%
CCOc1ccccc1CNC(=O)c1ccc(NC(=O)N2CCSc3ncccc32)cc1 -8.53%
COc1ccc(OC)c(CNC(=O)Cn2nc(C)c3nn(-c4ccc(Cl)cc4)c(C)c3c2=O)c1 1.21%
COc1ccc2oc(=O)c(-c3cn4c(n3)sc3cc(OC)ccc34)cc2c1 -0.733%
CCc1ccccc1NC(=O)Nc1nnc(N(C)Cc2ccccc2)s1 4.62%
Clc1ccc(N2CCN(c3ncnc4c3cnn4-c3ccccc3)CC2)cc1Cl -0.214%
COc1ccc(NC(=O)c2cc(S(=O)(=O)N3CCCCCC3)cn2C)cc1Cl 6.95%
COc1cccc(Cn2c(CNC(=O)Cc3cccc(C)c3)nc3cccnc32)c1 1.5%
COc1ccccc1-c1nc2c(c(SCC(=O)Nc3ccc(C)c(C)c3)n1)Cc1c(CO)cnc(C)c1O2 -5.64%
Cc1ccccc1NC(=O)Cn1c(=O)oc2cc(Br)ccc21 -10.2%
Cc1ccc(NC(=O)c2cccc3c2C(=O)N(C2CCCCC2)C3)c(C)c1 -4.71%
COc1ccc(N(CC(=O)Nc2cccc(Cl)c2C)S(=O)(=O)c2c(C)nn(C)c2C)cc1 0.315%
COc1ccc(C2=C(C)C(=NCCCN3CCN(c4cc(C)ccc4C)CC3)NS2(=O)=O)cc1 -3.82%
Cc1c(C)n(C)c2ccc(C(=O)NCCCN3CCCCC3C)cc12 (stereo not given) 1.3%
O=C(c1cc2c(s1)-c1ccccc1OC2)N1CCN(c2ccccc2F)CC1 -8.05%
Cc1ccc(C)c(NC(=O)Cn2cc(C(=O)c3ccco3)c3ccccc32)c1 -29.9%
CCCCN(CC)CCCNC(=O)c1nn(C)c2c1CS(=O)(=O)c1ccccc1-2 -0.984%
CCc1c(C)sc(NC(=O)c2cc(-c3cccc(Cl)c3)on2)c1C#N -0.847%
CCOC(=O)C1CCCN(c2cc(C)nc3c(-c4ccccc4OC)c(C)nn23)C1 (stereo not given) -8.68%
CCCCCOc1c(Cl)cc(C(=O)N(Cc2ccc(C)o2)C2CCS(=O)(=O)C2)cc1Cl (stereo not given) 1.44%
CCCN(CCC)CCCNC(=O)C1CCN(S(=O)(=O)CC)CC1 2.84%
COc1ccc(C)c2sc(N(Cc3cccnc3)C(=O)C3CCCCC3)nc12 -2.6%
CCOC(=O)c1ccc(N2C(=O)c3n[nH]c(-c4ccco4)c3C2c2ccc(O)cc2)cc1 (stereo not given) -1.72%
COc1ccc(C)cc1NC(=O)c1c(C)oc2ncn(CC(C)C)c(=O)c12 5.21%
CCCn1cc(S(=O)(=O)c2ccccc2)c(=O)c2cc(F)c(N3CCCC(C)C3)cc21 (stereo not given) 1.1%
Cc1ccc(S(=O)(=O)CC(=O)Nc2sc3c(c2C#N)CCCC3)cc1 -16.4%
CCn1cc(CCC(=O)NCc2ccccc2OC)c2ccccc21 -10.4%
Cc1ccc(CSCC(=O)N2CCN(c3ccccc3F)CC2)cc1 11.2%
CCOC(=O)Cn1c(=O)n(C2CCCCC2)c2nc(-c3cccc(F)c3)nc(C(N)=O)c21 0.184%
CC1=C(C(=O)Nc2ccccc2)C(c2cccnc2)n2nc(SCc3ccccc3Cl)nc2N1 (stereo not given) 11.2%
Cc1ccc(S(=O)(=O)c2cc3cc(C(=O)O)ccc3oc2=O)cc1 -6.1%
CCOC(=O)c1c(NC(=O)COc2cc(C)ccc2C(C)C)sc(C)c1C -3.99%
CCOc1cccc(C(c2c(C)n(C)n(-c3ccccc3)c2=O)c2c(C)n(C)n(-c3ccccc3)c2=O)c1OC -0.595%
CCOc1ccc(NC(=O)c2nn(C)c3c2CS(=O)(=O)c2ccccc2-3)cc1 4.75%
CCOc1ccccc1NC(=O)Cn1c(=O)n(-c2ccc(F)cc2)c(=O)c2sc3ccccc3c21 3.11%
O=C(Nc1cccc(OCc2cc(=O)n3c4c(sc3n2)CCCC4)c1)c1ccc(F)cc1 -5.5%
Cc1ccccc1-c1noc(CCC(=O)Nc2cccc(C)c2C)n1 -9.35%
Cc1ccc2nc(-c3cc(NC(=O)/C=C/c4ccccc4)ccc3Cl)oc2c1 7.96%
COc1cc(Cl)c(C)cc1NC(=O)c1cn(C2CCCC2)c(=O)c2c1c1ccccc1n2C -21%
COc1ccc(C(=O)Nc2ccc3nc(N4CCC(C)CC4)cc(C)c3c2)cc1 -7.55%
O=C(c1cccc(Cl)c1)N1CCN(CCc2ccncc2)CC1 -9.64%
CCOc1ccc(-c2nnc(SCC(=O)NCCc3ccc(OC)c(OC)c3)nc2-c2ccc(OCC)cc2)cc1 -1.95%
CCOCCCNC(=O)C(Cc1ccccc1)NS(=O)(=O)c1ccc2c(c1)c(=O)n(C)c(=O)n2C (stereo not given) -13.5%
COc1ccc(Cl)cc1-n1c(/C=C/c2cccc3ccccc23)nc2ccccc2c1=O 2.24%
COc1ccc(-c2nc(CSc3nncn4c3cc3occc34)c(C)o2)cc1 -8.77%
CCc1ccc(-c2[nH]c3c(c2-c2sc(C)c(C(=O)OC)c2O)c(=O)[nH]c(=O)n3C)cc1 0.84%
CCOc1ccc(CCNC(c2cccc(Cl)c2)c2nnc(-c3ccccc3)o2)cc1OCC (stereo not given) -18.6%
Cc1coc2c(C)c3oc(=O)c(CCC(=O)NCCc4ccccc4)c(C)c3cc12 2.04%
Cc1nn(C(=O)c2ccc(Br)cc2)c(C)c1S(=O)(=O)N1CCOCC1 -0.784%
COc1cccc(/C=C/c2nc(C#N)c(NCCc3ccc(OC)c(OC)c3)o2)c1 -0.97%
COC(=O)c1ccc2c(c1)N(Cc1ccc(F)cc1)C(=O)c1ccccc1S2 2.96%
Cn1c(NCCO)nc2c1c(=O)n(Cc1cccc(F)c1)c(=O)n2C 1.8%
CCOc1ccc(CCNC(=O)c2cnc3c(-c4ccc(F)cc4)c(C)nn3c2C)cc1OCC -5.54%
O=C(NCCc1ccc(Cl)cc1)c1cnc2sc(N3CCCCC3)nn2c1=O -0.973%
COc1ccc2c(c1)sc1ncc(C(=O)NCc3ccc(OC(C)C)cc3)c(=O)n12 -2.19%
COc1ccc(-c2cc(C(F)(F)F)nc(SCCC(=O)Nc3cc(C)ccc3O)n2)cc1 -14.6%
Oc1c(C(c2ccc(Cl)cc2)N2CCC3(CC2)OCCO3)sc2nc(-c3ccco3)nn12 (stereo not given) -0.117%
CCn1c(=O)c(C(=O)Nc2ccc(C(C)=O)cc2)nc2ccccc21 -1.48%
COc1cc(NC(=O)c2cccc3c2C(=O)N(C2CCCCC2)C3)cc(OC)c1 0.257%
O=C(Cn1c(=O)oc2ccccc21)Nc1ccc(C(=O)O)cc1 -0.152%
CCOc1ccccc1NC(=O)CSc1nc2cc(OC)c(OC)cc2c2nc(-c3ccccc3)nn12 -6.34%
Cc1ccc(C)c(CN2C(=O)c3ccccc3S(=O)(=O)c3ccc(C(=O)N4CCN(c5ccccc5)CC4)cc32)c1 0.0572%
C#CCSc1nc2sc3c(c2c(=O)n1Cc1ccccc1)CCCC3 -15.8%
COc1ccccc1OCCSc1nc2ccccc2n1CC(=O)N1CCOCC1 -3.67%
Cc1ccc(NC(=O)CCS(=O)(=O)c2cccc3nonc23)cc1Cl -16%
